Data on six molecules can be found in article PMC12136788.

Sequences and labels used below:
B1: 114940117_114940237_3560_3pUTR_ENSG00000197323_ENST00000358465|human|control|control (ssRNA)
RNA: GGGAGUUCUACAGUCCGACGAUCUAAUACUGUGUAAAAGCUAUCAGCUUCUUCAAGGAGGUGCCCACUGUAGGCAGGAUAUUCCAGCAACACUUAAAAGUUUUCUGGGUUUUUUGUGUUUUUUUUUUUUUUUUCGUUUUUUUUCAACAGAGGAUUGAGCAUCA
B2: chr2:47387770:47387771:-_ENSG00000143933_ENST00000272298|hu_mus|hu_hu_hu_mus_True|1_1 (ssRNA)
RNA: GGGAGUUCUACAGUCCGACGAUCAAGGUUUAAGGACAAUGACAGUAAGAUAAGGGAAGAAAACAUGGAGGAAUGAAGUCCUAAUUACUAUACAUGCAUAUUUUUUGACAGUAGGGGGGGGGAACCUUUUACAGAUAUUACAAACAACAGAGGAUUGAGCAUCA
B3: chr18:33744517:33744518:+_ENSG00000134759_ENST00000351393|hu_hu|FALSE|FALSE (ssRNA)
RNA: GGGAGUUCUACAGUCCGACGAUCUAAGAACUUCUCAUUAGGUGAGAAGGCCAUCUGCGUGACUGUCAAACUGUGGAAAACUAAAUUCUGCACCUGUUUCCAAGAUGUAGUGUUCCAAAGAAUGAUAGCUGCAUGCUCUUUCUUCAACAGAGGAUUGAGCAUCA
B4: chr9:87430539:87430540:+_ENSG00000148053_ENST00000359847|hu_mus|FALSE|FALSE (ssRNA)
RNA: GGGAGUUCUACAGUCCGACGAUCGAAAUGGAUGAAUUCAGCAAGUACAUUUAUAGUCUAGCCACACUGUUAAAACAGUACUUAAAAGUAAAAUCUUUUUUAAAAAAAGAGAUGCAUUGUUUACAGGAAAUGUGAAAAAAGAGACAACAGAGGAUUGAGCAUCA
B5: chr22:42024162:42024163:+_ENSG00000196419_ENST00000405878|hu_mus|FALSE|FALSE (ssRNA)
RNA: GGGAGUUCUACAGUCCGACGAUCUUCAUCUUCACCCUGAGAUUCGAACAUAGCCCUGGAGGCAUCAACCAGAAAAAUCAAGCUAUCUCUUCCUGAAUAUUUAUAUUCUCCACCUGUGUCGGGGCUCUCCUCCUCCUCUUCCUCCAACAGAGGAUUGAGCAUCA
B6: chr11:80196919:80196920:+_ENSMUSG00000017421_ENSMUST00000017567|mus_mus|FALSE|FALSE (ssRNA)
RNA: GGGAGUUCUACAGUCCGACGAUCUUCUUCUUCUUGCGACCCAUAACUGCGCCCUACAGAACAGGCAGAAUAGAGGCGGAAAGAAGCUGGAAAAAACAAAAAACAAAAAACCCAAGAGACUCGCAGAGUUCUCCACACCAACCGCAACAGAGGAUUGAGCAUCA

This is one part of the list.

The experiment concerns the target T1, UNK ZnF1-3 (human, UniProt Q9C0B0 31-174).
T1 sequence: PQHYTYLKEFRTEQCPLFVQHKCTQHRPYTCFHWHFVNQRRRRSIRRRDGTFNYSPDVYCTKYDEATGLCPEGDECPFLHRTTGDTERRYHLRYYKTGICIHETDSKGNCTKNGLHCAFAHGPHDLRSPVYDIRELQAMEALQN
The experiment in a line: nsRBNS (natural sequence RNA bind-n-seq); RBNS binding buffer (assumed for nsRBNS): 25 mM Tris pH 7.5, 150 mM KCl, 3 mM MgCl2, 0.01% Triton X-100, 500 ug/ml BSA, 20 U/ml SUPERase-In, 4 C; UNK is unkempt and MSI1 is Musashi-1; names of the RNAs are library labels; protein concentration not given here; high values mean tight binding.
B1: the binding signal amounted to 0.822 enrichment R.
For B2 the value was 2.28 enrichment R; for B3, 0.508 enrichment R.
The result for B4 reads 1.68 enrichment R; that for B5, 1.35 enrichment R.
The result for B6 reads 1.67 enrichment R.
